# In all, about 150,000 compounds went through this assay and about 540 (0.36%) showed an effect of 50% or more. The list shows a part of the results.
# Test system: Plasmodium falciparum
# Assay: Primary screen in NF54 nanoGlo assay, in single point, at 2uM, 72h; a lower Z score goes with more inhibition
# Type: functional, Erythrocyte
# Details: timepoint 72 hour
Compound,% Inhibition [%],Z score
C[C@@H](Cc1cnccn1)N(C)C(=O)CN1CCOC1=O,-15,1.87
C[C@H](NCc1cccc2c1OCO2)c1cccc(CO)c1,3,-0.38
O=C(N1CCOC[C@@H]1CO)C1(c2ccccc2)CCOCC1,-7,1.02
COCCO[C@@H](C)c1nnc2n1CCN(C(=O)OC(C)(C)C)C(C)(C)C2,0,0
C[C@H]1CCCN(C(=O)CCC(=O)c2cnn(C)c2)c2ccccc21,7,-0.92
Cc1ccc(CNC(=O)CCc2cccs2)s1,3,-0.42
Cc1cnc([C@H](C)NC(=O)NCc2cnccn2)s1,11,-1.27
COc1ccc2c(c1)C(N1CCN(S(=O)(=O)c3cccc(C)c3)[C@@H](C)C1)=Nc1ccccc1O2,3,-0.41
O=c1[nH]nc(Cn2ccnc2)n1Cc1ccc(Cl)cc1Cl,0,-0.08
COC(=O)N1CCCC[C@H]1C(=O)N1CCC2(CCCC2)C1,-7,1.14
Cn1nccc1-c1cncc(CNC(=O)c2nc(-c3cccs3)cs2)c1,11,-1.43
CC(C)(C)[C@@H](C#N)OC(=O)c1cccc(F)c1,-10,0.86
CN(C)c1ccc(NC(=O)Cn2cc(S(=O)(=O)N3CCOCC3)ccc2=O)cc1,-1,0.23
Cc1cc(=O)n(CC(=O)N2CCC3(CC2)CC(=O)N(CC(C)C)C3)nc1C,1,-0.19
CC(C)Nc1cc(N(C)Cc2ccn[nH]2)nc(N)n1,-16,2.01
CC[C@H](O)C1CCN(CCS(C)(=O)=O)CC1,2,-0.27
CC1CCc2nc(C(=O)NC(CCO)C(C)C)cn2C1 (stereo not drawn),-1,0.2
Cc1ccc(Cc2nc(-c3ccc4c(c3)[nH]c(=O)n4C3CCCC3)no2)cc1,7,-0.99
CCc1ccc(CNc2cccc(NC(=O)OCCOC)c2)o1,8,-1.05
COCCOC[C@H](C)Nc1cc(OC)c(Cl)cc1OC,6,-1.29
CC(C)(C)c1ccc(OCC(=O)N2CCCC[C@@H]2CCN2CCCCC2)cc1,-4,0.6

Compound,% Inhibition [%],Z score
c1ccc2c(c1)ncn2[C@H]1CCN(c2cc(C3CCC3)ncn2)C1,-7,1.37
C[C@@H]1Oc2ccc(NC(=O)CCC(=O)c3ccc(Cl)cc3)cc2NC1=O,-7,0.86
Cc1noc2ncnc(NC[C@@H]3C[C@H](CO)N(C)[C@@H]3c3ccccc3F)c12,-25,2.22
C=CCC(O)(CC=C)CNC(=O)C1(N)CCCC1,-5,0.61
Cc1cc(NCc2ccc(S(N)(=O)=O)cc2C)nc(C2CCC2)n1,-11,1.74
Cc1cc(F)ccc1S(=O)(=O)N1CC[C@H](c2ncccn2)C1,-18,2.21
COCCc1noc(COc2cccnc2C)n1,-1,0.1
CCN1C(=O)CC[C@H](C(=O)N2CC(F)C2)[C@H]1c1ccncc1,-7,1.41
CCCCCOc1ccc(C2(C)C(=O)N(CN3CCOCC3)C(=O)C2CN2CCOCC2)cc1 (stereo not drawn),3,-0.43
CCCN(Cc1c(-c2cccc(C)c2)noc1N1CCOCC1)C(=O)c1ccccc1,1,-0.14
COC[C@@](C)(C#N)NC(=O)c1cc(C)c(Br)c(Cl)c1,-10,1.74
Cn1ccnc1[C@@H](NCc1c(F)cccc1F)C1CC1,-5,0.67
CCn1ccnc1CN(C)C(=O)c1coc(CN2CCN(Cc3ccccc3)CC2)n1,8,-1.03
C=C(C)C[C@H](C)C(=O)Nc1nncn1C,0,-0.04
Cc1oc(C#N)cc1C(=O)N1CCOCC12CC2,17,-1.98
O=C(NCC1CCN(Cc2ccccc2F)CC1)[C@H]1CCCN(c2nc3ccc(Cl)cc3[nH]2)C1,-1,0.24
COCCN(Cc1ccc(C)s1)C(=O)c1cc(C(F)(F)F)n[nH]1,5,-0.44
O=C(c1cc(F)ccc1F)N1CCC[C@@]2(C1)NC(=O)N(Cc1ccccc1)C2=O,-9,1.03
COCC(=O)N1CCCCC[C@H]1c1noc(-c2ccc(F)cc2)n1,-15,1.72
CC(NC(=O)C(C)C1CC1)c1nn(C)cc1O (stereo not drawn),21,-2.69
CCOc1ccc(CN[C@H]2CCCO[C@@H]2c2cnn(CC)c2)nc1,-13,2.7

Compound,% Inhibition [%],Z score
CS(=O)(=O)N[C@H]1[C@H](NC(=O)c2ncc(F)cc2F)[C@@H]2CCO[C@@H]21,13,-1.74
COc1ccc(OC)c(S(=O)(=O)N2CC3(C[C@H](CC(=O)NCC4CC4)CO3)C2)c1,-10,1.61
Cc1nnc(N(C)CCCNC(=O)OC(C)(C)C)s1,2,-0.38
O=C(NCc1cccnc1-c1ccsc1)c1ccc(-c2cccs2)cc1,6,-0.96
CC(C)=CCN1CC2(CCN(c3ncc(Cl)cc3F)CC2)CC1=O,-3,0.57
Cc1cc(C(=O)NC[C@]2(O)CCCN(S(=O)(=O)N(C)C)CC2)c(C)o1,-7,0.92
O=C([C@H]1CC(=O)N(C2CCCC2)C1)N1CCc2[nH]c3ccc(F)cc3c2C1,15,-1.45
COc1ccccc1CC(=O)NCc1ccccc1CN1CCC[C@H](C)C1,-2,0.37
CCc1cc(C(=O)N[C@H]2CCN(C3CCCCC3)C2)n(C)n1,-4,0.86
O=C(CN(Cc1cccc(O)c1)C1CCC(O)CC1)N1CCOCC1 (stereo not drawn),0,-0.03
Nc1nc(N)nc(OCC(F)(F)C(F)(F)C(F)(F)C(F)(F)C(F)(F)C(F)(F)F)n1,-1,0.16
CC(C)Cc1nnc(NC(=O)C2CC3C=CC2C3)s1 (stereo not drawn),27,-3.1
CCC(C)c1ccc(C(CC)NC(C)=O)cc1 (stereo not drawn),-17,2.27
COc1ccc(-c2nnc(NC(=O)[C@H](C)NC(=O)Nc3ccc(OC)cc3OC)s2)cc1,2,-0.24
C[C@@H](Cc1ccc(OC(F)(F)F)cc1)C(=O)NCc1nccn1C,6,-0.82
C=CCNC(=O)COCc1cc(-c2ccco2)on1,-3,0.34
O=C(NC[C@H]1O[C@@H](CC(=O)N2CCN(c3ccc(F)cc3)CC2)[C@H](O)[C@@H]1O)c1cccc(F)c1,31,-3.54
COc1nc2c(c(C)nn2-c2ccc(C)cc2)c(C)c1CCC(=O)Nc1cccnc1,-7,0.95
CC(C)(CNC(=O)c1cnc2cc[nH]c2c1)C1CCOCC1,3,-0.45
Cn1cc(Cl)cc1C(=O)N1CCC(n2cn[nH]c2=O)CC1,-8,0.8
Cc1ccc(OCc2ccc(C(=O)NCC3CC(N)C3)o2)c(C)c1 (stereo not drawn),-15,2.1

Compound,% Inhibition [%],Z score
O=C(NCC1(C2(O)CCOCC2)CC1)c1c[nH]c2cc(Cl)ccc12,20,-2.54
O=C(CC1COCCN1)NC(Cc1ccccc1Cl)c1ccccc1 (stereo not drawn),-2,0.35
CC(C)(Oc1cc2c(cc1-c1cncc(C3CC3)c1)CCO2)C(=O)O,-1,0.1
CN(CCc1noc(C(F)(F)F)n1)C(=O)[C@H]1C[C@@H]1c1ccccc1,-3,0.4
COc1ccc(CC[C@H](C)NC(=O)NCCNc2cnccn2)cc1,1,-0.16
CCOC(=O)Cc1nc(COc2ccc(Cl)cc2)n[nH]1,-5,0.74
COc1ccc2c(c1)CCN(Cc1nonc1C)C2,-9,1.15
C[C@H]1Cc2ccccc2N1C(=O)Cn1ncc(N2CCCN(C)CC2)cc1=O,3,-0.49
CCOc1cc2c(cc1-c1nccn1CCn1cnnc1)CCC2,-11,1.44
CCC[C@H]1CCCN1C(=O)c1cccc2c1CN(CCc1cn(C)cn1)C2=O,-3,0.53
COc1cccc(CN2Cc3cc(NC(=O)Cc4cccs4)ccc3O[C@@H](C)C2=O)c1,-3,0.45
CCCc1csc(NC(=O)NCc2ccco2)n1,5,-0.83
O=C(N[C@H]1CCN(c2ccc(C(F)(F)F)cn2)C1)c1ccc2cc[nH]c2c1,-1,0.25
O=C(N[C@H]1CC[C@H](Oc2ncccn2)CC1)c1ccoc1,-15,1.76
Cc1cc(C)c(CS(=O)(=O)[C@@H](C)C(=O)N2CCCC2)c(C)c1,-7,1.33
CCCCC(CC)CNC(CC(=O)Nc1ccccc1C#N)C(=O)O (stereo not drawn),-13,1.7
Cc1cccc2nc(NCc3nnc4n3CCN(C)C4=O)sc12,32,-3.57
CN(C)C(=O)c1cccc(CNC(=O)N2C[C@H]3C[C@H](O)[C@H](O)C[C@H]3C2)c1,-14,1.91
CC(=O)Nc1cccc(C(=O)N2C[C@H]3CCC[C@@H](C2)N(C)C3)c1,-11,1.31
Cc1cc(N[C@H]2CC(=O)N(Cc3ccccc3)C2=O)ccc1N1CCCC1=O,-10,0.88
CCO[C@H]1COCC[C@@H]1NC(=O)c1cccc2cnccc12,-8,1.34

# Source: ChEMBL document CHEMBL4888484, “Replenishing the malaria drug discovery pipeline: Screening and hit evaluation of the MMV Hit Generation Library 1 (HGL1) against asexual blood stage Plasmodium falciparum ,using a nano luciferase reporter read-out” (2022)
